61 compounds from PubChem BioAssay AID1963576 (National Center for Advancing Translational Sciences (NCATS), 2024) can be followed below.

The whole screen tested about 46,000 compounds, of which about 60 (0.1%) were called active. Another 3% or so got no clear call; they are omitted. The call rests on the fitted dose curve; in most records, active means well fitted inhibition curve with a large enough effect; inconclusive means small, poorly fitted or top-dose-only effect; inactive means no such curve, though single readings can be large or run the other way. The list shows a part of the results.

The experiment is described as follows: Primary qHTS assay for Inhibitors of ovarian cancer metastasis using an organotypic tumor microenvironment (TME) model. Further: nearly all actives have a fitted effect of over 65% in size.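 On activity change, negative = inhibition: plate controls were DMSO wells for no effect and tomatine positive control wells for full effect.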 The conditions noted are these: SKOV3ip1-GFP adhesion/invasion on 3D omental model, fluorescence; series mostly up to 45.8 µM; activity change, negative = inhibition: at the top concentration. In short, it runs like this: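 qHTS, 4-pt dose (0.36-46 umol/L); SKOV3ip1-GFP, 1,200 cells/well, no FBS; primary omental fibroblast/mesothelial co-culture 48 h pre-grown; 2 h RT + 16 h 37 C; PBS wash, 4% PFA; GFP count 488/509 nm.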
In general terms: qHTS replaces the single test concentration by a dilution series.
For `Cc1noc(/C=C/c2ccccc2F)c1S(=O)(=O)N1CCC(C(=O)N(C)Cc2ccco2)CC1`, the call was inactive.

On to `Cc1ccccc1CN1C(=O)c2ccccc2Sc2ccc(C(=O)NCc3cccs3)cc21`, for which the “activity change, negative = inhibition” value was inactive: 11.4%.

Turning to `CCC(=O)N1CCc2cc(Br)cc(S(=O)(=O)N3CCCC(C(=O)NCc4ccccc4)C3)c21` (stereo unspecified), the “activity change, negative = inhibition” value was inactive: -9.54%.

As to `COC(=O)c1c(N)n(-c2cc(Cl)cc(Cl)c2)c2nc3ccccc3nc12`, the compound was called inactive.

Consider `COc1ccc(C(=O)N(Cc2ccco2)Cc2ccco2)cc1`, for which the “activity change, negative = inhibition” value is inactive: -0.57%.

Turning to `Nc1c(-c2nc(-c3ccncc3)no2)nnn1CC(=O)Nc1ccccc1`, the call was inactive.

For the compound `COc1ccccc1CNCCSc1nnnn1C`, the “activity change, negative = inhibition” value is inactive: -1.41%.

Take `O=C(Cn1c(=O)nc(-c2ccccc2)c2cc(Cl)ccc21)NCCc1ccc(Cl)cc1`: the “activity change, negative = inhibition” value was inactive: -1.41%.

In the case of `COc1cccc(NC(=O)Cn2c(=O)n(-c3ccc(Cl)cc3)c(=O)c3sc4ccccc4c32)c1`, the call was inactive.

For the compound `CCOc1ccc(/C=C/c2nc3ccccc3n2S(=O)(=O)c2ccc(Br)cc2)cc1`, the “activity change, negative = inhibition” value is inactive: -5.65%.

On to `COc1ccccc1N1CCN(S(=O)(=O)c2c(C)sc3ncn(CC(=O)Nc4ccccc4F)c(=O)c23)CC1`, for which the “activity change, negative = inhibition” value is inactive: 7.08%.

Consider `COc1ccc(S(=O)(=O)NCC(c2ccco2)N2CCOCC2)cc1C` (stereo unspecified), for which the result was inactive.

For the compound `CCOc1ccc(NC(=O)CSc2nnc(CNC(=O)c3c(F)cccc3Cl)o2)cc1`, the “activity change, negative = inhibition” value is inactive: 0.126%.

With `CCc1ccc(NCc2cccn2-c2nnc(N3CCCCCC3)s2)cc1`, the “activity change, negative = inhibition” value was inactive: 7.78%.

As to `COc1ccc(C)cc1NS(=O)(=O)c1ccc2c(c1)n(C)c(=O)n2C`, the “activity change, negative = inhibition” value is inactive: 5.33%.

For `COc1ccc(C(=O)NCC2(N3CCN(C)CC3)CCCCC2)cc1`, the result was inactive.

For `COC(=O)c1ccc(Cl)cc1NC(=O)N(Cc1ccc(C)o1)C1CCN(C(C)=O)CC1`, the “activity change, negative = inhibition” value is inactive: 1.77%.

Take `Cc1ccc(NC(=O)Cn2nnc3sc(-c4ccccc4)cc3c2=O)cc1Cl`: the “activity change, negative = inhibition” value is inactive: 1.08%.

For the compound `CCC(C)NC(=O)c1ccc2c(=O)n3c(nc2c1)CCCCC3` (stereo unspecified), the “activity change, negative = inhibition” value is inactive: 1.19%.

With `Cc1ccc2c(c1)N(C(=O)NCc1ccccc1)CCO2`, the “activity change, negative = inhibition” value is inactive: 5.41%.

In the case of `Cc1nnc2c(Nc3cccc(O)c3)nc3ccccc3n12`, the “activity change, negative = inhibition” value was inactive: -19.1%.

Regarding `CCn1c(=O)c(=O)n(CC)c2cc(N3CCCCC3)c(NC(=O)c3cccc(F)c3)cc21`, the “activity change, negative = inhibition” value is inactive: 10.8%.

On to `CC(=O)Nc1ccc(C)cc1-c1nc2ccccc2n(CC(=O)Nc2cc(Cl)ccc2C)c1=O`, for which the “activity change, negative = inhibition” value is inactive: -7.42%.

In the case of `CCCN1Cc2cccc(C(=O)Nc3cc(C)cc(C)c3)c2C1=O`, the “activity change, negative = inhibition” value was inactive: -12%.

As for `COc1ccc(NC(=O)CSc2nc(-c3ccco3)cc(C(F)(F)F)n2)cc1`, the “activity change, negative = inhibition” value is inactive: -3.22%.

As for `COc1ccc(NC(=O)Cn2c(=O)n(Cc3ccc(C(=O)NCc4ccccc4Cl)cc3)c(=O)c3ccccc32)cc1OC`, the call was inactive.

Regarding `COc1ccc(Cl)cc1NC(=O)CCC(=O)N1CCOc2ccccc21`, the “activity change, negative = inhibition” value was inactive: -8.88%.

For `CCCNC(=O)N1[C@H](c2ccc(C)s2)[C@@H](C)C(=O)[C@@H](C)[C@@H]1c1ccc(C)s1`, the “activity change, negative = inhibition” value was inactive: 7.99%.

Take `COc1ccc(N2C(=O)C(CC(=O)Nc3ccc(F)cc3)N(Cc3ccc4c(c3)OCO4)C2=O)cc1` (stereo unspecified): the “activity change, negative = inhibition” value is inactive: -1.25%.

On to `Cc1cc(F)ccc1S(=O)(=O)Nc1ccc2c(c1)CCCN2C(=O)c1cccs1`, for which the “activity change, negative = inhibition” value is inactive: -24.1%.

On to `COC(=O)c1cnc(NCc2ccc(F)cc2)c2ccccc12`, for which the outcome was inactive.

With `CCN(CC)C(=O)Cn1c(=O)nc(-c2ccccc2F)c2cc(Cl)ccc21`, the result was inactive.

`Cc1ccc(-n2ncc3c(NCCCn4ccnc4)ncnc32)cc1Cl`: the “activity change, negative = inhibition” value was inactive: -4.11%.

For `COc1ccc(CC(=O)NCC(c2ccc(N(C)C)cc2)N2CCOCC2)cc1` (stereo unspecified), the call was inactive.

Consider `CC(C)c1ccc(OC(=O)c2cc(-c3ccc(Cl)cc3)on2)cc1`, for which the call was inactive.

With `COc1ccc(-n2c(=O)c3sc4ccccc4c3n(CC(=O)Nc3ccccc3F)c2=O)cc1`, the “activity change, negative = inhibition” value is inactive: -20%.

As to `Cc1ccc(NC(=O)CSc2nc(-c3cccs3)nc3cc(=O)[nH]n23)cc1`, the outcome was inactive.

For the compound `CCOC(=O)Cc1ccc(NC(=O)NCc2cccn2Cc2ccccc2)cc1`, the “activity change, negative = inhibition” value is inactive: 4.35%.

Take `O=C1c2[nH]nc(-c3ccccc3O)c2C(c2ccccc2F)N1Cc1ccncc1` (stereo unspecified): the “activity change, negative = inhibition” value is inactive: -0.0792%.

For the compound `Cc1ccc2c(c1)NC(=O)C(CC(=O)Nc1ccccc1Cl)O2` (stereo unspecified), the “activity change, negative = inhibition” value is inactive: 5.15%.

With `Cc1oc(-c2ccc(Cl)cc2)nc1CN1CCC(C(=O)NCCCN2CCN(c3cccc(Cl)c3)CC2)CC1`, the “activity change, negative = inhibition” value is inactive: -3.88%.

Take `CC(C)C1CCC(C(=O)N[C@H](Cc2ccccc2)C(=O)O)CC1` (stereo partly specified): the “activity change, negative = inhibition” value is inactive: 1.31%.

Regarding `CCc1nc2nc(C)cc(Nc3ccc(OC)cc3OC)n2n1`, the “activity change, negative = inhibition” value is inactive: 5.79%.

Take `CCC(Cc1ccccc1)NC(=O)Cn1ncc2c3ccccc3n(Cc3ccccc3)c2c1=O` (stereo unspecified): the “activity change, negative = inhibition” value was inactive: 1.47%.

With `CCOc1ccc(C(=O)c2cn(Cc3ccc(Cl)cc3)c3cc(OC)c(OC)cc3c2=O)cc1`, the “activity change, negative = inhibition” value is inactive: -13%.

Regarding `Cc1ccc(Nc2nnc(-c3ccc(C)c(S(=O)(=O)N4CCOCC4)c3)c3ccccc23)c(C)c1`, the outcome was inactive.

As to `Cc1ccc(Cl)cc1N1CCN(C(=O)c2cc(S(=O)(=O)N3CCCC3)cn2C)CC1`, the “activity change, negative = inhibition” value is inactive: 11.8%.

In the case of `Cc1cc(C)n2nc(SCC(=O)Nc3ccccc3C)nc2n1`, the “activity change, negative = inhibition” value is inactive: 2.25%.

Take `COc1cc(NC(=O)CN2C(=O)COc3ccc(S(=O)(=O)N4CCCCC4)cc32)cc(OC)c1`: the “activity change, negative = inhibition” value is inactive: 5.83%.

On to `CCCN1C(=O)C(Cc2nc3ccccc3c(=O)n2-c2ccccc2)c2cc(C)ccc21` (stereo unspecified), for which the “activity change, negative = inhibition” value is inactive: 3.98%.

Take `CCc1cccc(N2C(=O)N(CC(=O)NCc3cccc(OC)c3OC)c3ccccc3S2(=O)=O)c1`: the call was inactive.

As to `Cc1ccc(C)c(CN2C(=O)c3ccccc3S(=O)(=O)c3ccc(C(=O)N4CCN(c5ccccn5)CC4)cc32)c1`, the “activity change, negative = inhibition” value was inactive: -2.1%.

With `COc1ccc(C(=O)NCCc2sc(-c3ccc(Cl)cc3)nc2C)c(OC)c1`, the compound was classed as inactive.

In the case of `COc1ccc(C)cc1NC(=O)CSc1nc(=O)n(Cc2ccncc2)c2c1CCC2`, the “activity change, negative = inhibition” value was inactive: -0.114%.

For `C=Cc1ccc(CN2C(=O)N(c3ccc(CC)cc3)S(=O)(=O)c3ccccc32)cc1`, the “activity change, negative = inhibition” value is inactive: -6.36%.

For the compound `COc1ccc(C)cc1Nc1nc2cc(Cl)c(Cl)cc2nc1-n1nc(C)cc1C`, the “activity change, negative = inhibition” value is inactive: 2.11%.

As for `Cc1ccc(NC(=O)Cn2c(=O)n(-c3ccccc3)c(=O)c3c4c(sc32)CCCC4)cc1`, the “activity change, negative = inhibition” value was inactive: 14.2%.

For the compound `COc1ccc(C)cc1NC(=O)NCc1ccc2c(c1)CCN2C(=O)c1ccccc1`, the “activity change, negative = inhibition” value is inactive: -7.77%.

Take `O=C(CSc1ncc2c(n1)-c1ccccc1N(Cc1ccccc1)S2(=O)=O)Nc1ccccc1`: the “activity change, negative = inhibition” value was inactive: 1.64%.

Regarding `COCCNC(=O)c1ccc(CSc2nc3ccncc3n2Cc2ccccc2)cc1`, the “activity change, negative = inhibition” value was inactive: 11.2%.

For the compound `COC(=O)c1ccc(OCC2c3cc(OC)c(OC)cc3CCN2C(=O)C(C)C)cc1` (stereo unspecified), the outcome was inactive.
